Inconclusive means that the source gave no clear call. Such entries were picked first, then a sample of the others. No potency is given beside an inconclusive call; the fits are too rough. Where a structure was tested more than once in an assay, its records may differ in their call. The source made the active and inactive calls. Unless noted, calls follow the shape of the dose curve; as a rule, active = well fitted curve in the direction sought with a large enough effect in the repeat runs; inconclusive = weak or mixed curves; inactive = no such curve, though single readings can be large; an effect the other way counts as inactive or inconclusive.
experiment: qHTS assay to identify small molecule phospholipidosis (PLD) inducers (AID 1259344; active = well fitted curve in the direction sought with a large enough effect; inconclusive = small, poorly fitted or top-dose-only effect, or another doubt; inactive = no such curve, though single readings can be large; an effect the other way counts as inactive or inconclusive); details: HepG2 phospholipidosis, LipidTOX Red imaging, 24 h; series mostly up to 38.3 µM; PLD induction: at the top concentration
Method in brief: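 After 4 h attachment on collagen I, HepG2 cells were dosed with compound alongside LipidTOX Red, kept 24 h at 37 C, fixed, and imaged for lamellar phospholipid pits.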
% is scaled to controls: 0 for no effect and ±100 for the full control effect; potency is read from the fitted curve at half-maximal effect; tags tell the direction and shape of the fitted curve.

SMILES	PLD induction	Potency
CC(NN)c1ccccc1 (configuration not stated)	inactive: -2.02%	–
CCCNC(C)C(=O)Nc1ccccc1C (configuration not stated)	inactive: -0.729%	–
CCN(CC)CCCN(c1ccccc1)C1Cc2ccccc2C1	–	inconclusive [activator, single point]
CN1CCN(C2=Nc3cc(Cl)ccc3Nc3ccccc32)CC1	–	inconclusive [activator, partial curve, poor fit]
CC1(C)[C@@H](O[C@H]2O[C@H](C(=O)O)[C@@H](O)[C@H](O)[C@H]2O[C@@H]2O[C@H](C(=O)O)[C@@H](O)[C@H](O)[C@H]2O)CC[C@]2(C)[C@H]3C(=O)C=C4[C@@H]5C[C@@](C)(C(=O)O)CC[C@]5(C)CC[C@@]4(C)[C@]3(C)CC[C@@H]12	–	inconclusive [activator, single point]
NC(N)=Nc1nc(CSCC/C(N)=N/S(N)(=O)=O)cs1	inactive: 12.7%	–
CC(C)c1nc(CN(C)C(=O)N[C@H](C(=O)N[C@@H](Cc2ccccc2)C[C@H](O)[C@H](Cc2ccccc2)NC(=O)OCc2cncs2)C(C)C)cs1	–	active: 10 µM
CC(=O)[C@H]1CC[C@H]2[C@@H]3CC=C4C[C@@H](O)CC[C@]4(C)[C@H]3CC[C@]12C	–	inconclusive [activator, single point]

experiment: qHTS assay to identify small molecule HDAC inhibitors (AID 1259364); details: HCT-116 HDAC-Glo I/II luminescence, 2 h; series mostly up to 42.5 µM; activity change, negative = inhibition: at the top concentration;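 also: wild-type HCT-116 cells with endogenous class I/II HDAC activity; nearly all actives have a fitted effect of over 45% in size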; as to activity change, negative = inhibition: top concentration of the series differs between compounds
Method in brief: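 Quantitative high-throughput format: overnight-seeded HCT-116 cells got compounds for 2 hr at 37C; HDAC-Glo I/II reagent added, 30 min RT, luminescence measured.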

SMILES	Potency	activity change, negative = inhibition
Nc1ccccc1O	inconclusive [inhibitor, partial curve]	–
Cc1ccc(Nc2c(F)cccc2Cl)c(CC(=O)O)c1	–	inactive: 3.41%
CN1C(=O)OC(C)(C)C1=O	inconclusive [inhibitor, partial curve, poor fit]	–
CC1CN(c2ccccc2)NC1=O (configuration not stated)	active: 24.3 µM	–
Oc1ccc(C(c2ccc(O)cc2)C(Cl)(Cl)Cl)cc1	inconclusive [inhibitor, partial curve]	–
N#[N+]c1ccc2c(S(=O)(=O)[O-])cccc2c1O	inconclusive [inhibitor]	–
CCCOC(=O)c1ccc(O)cc1	inconclusive [inhibitor]	–
S=c1[nH]c2ccccc2s1	inconclusive [inhibitor]	–
O=C(Oc1ccccc1)c1cccc(C(=O)Oc2ccccc2)c1	active: 0.0885 µM	–
C=CC(=C)CCCC(C)(C)OC(C)=O	–	inactive: -0.0808% [at 92.4 µM]
Nc1ccccc1N	inconclusive [inhibitor, partial curve]	–
CCCOc1ccc2nc(NC(=O)OC)[nH]c2c1	inconclusive [inhibitor, full curve]	–
O=c1cc(-c2ccccc2)oc2ccc3ccccc3c12	active: 0.137 µM	–
CCCCC1C(=O)N(c2ccccc2)N(c2ccc(O)cc2)C1=O (configuration not stated)	inconclusive [inhibitor, partial curve, poor fit]	–
CCOC(=O)C1OC1c1ccccc1 (configuration not stated)	inconclusive [inhibitor, partial curve]	–
Cc1cc(C)cc(N)c1	inconclusive [inhibitor, full curve]	–
Oc1ccc(-c2ccc(O)cc2)cc1	inconclusive [inhibitor]	–
CCCCCCCCOc1ccc(C(=O)O)cc1	inconclusive [inhibitor, partial curve]	–
Nc1ccc(S(=O)(=O)NCc2ccccc2)cc1	–	inactive: 10.4%
C(=C\c1ccccc1)/c1ccccc1	active: 19.2 µM	–
c1ccc(CCCc2ccncc2)cc1	active: 27.3 µM	–
Cc1ccc(OC(=O)c2ccccc2O)cc1	active: 15.4 µM	–
O[C@@H]1CO[C@H]2[C@@H]1OC[C@@H]2O	–	inactive: 0.628%
c1ccc2sc(SN3CCOCC3)nc2c1	inconclusive [inhibitor, partial curve]	–
CC(C)OC(=O)c1cc(C(=O)OC(C)C)cc([N+](=O)[O-])c1	inconclusive [inhibitor, partial curve, poor fit]	–
CC(C)COC(=O)c1ccc(N)cc1	inconclusive [inhibitor, partial curve, poor fit]	–
NNCCc1ccccc1	inconclusive [inhibitor, partial curve, poor fit]	–
O=C(O)c1cc(O)c2ccccc2c1O	inconclusive [inhibitor, partial curve]	–
CCC=CC#N	active: 21 µM	–

From PubChem BioAssay (Tox21)
